# Test results taken from PubChem BioAssay AID248 (DTP/NCI, 2004).
# Inconclusive results and toxic doses are left out. A number of entries come with more than one value. Only these are listed. The source may hold further records. Results that share an entry differ for a reason that is not stated; some may be repeats, others may stem from another dose, organism or construct than stated.
# System: L1210 leukemia ip in BDF1 mice, survival T/C
# Experiment: NCI In Vivo Anticancer Drug Screen. Data for tumor model L1210 Leukemia (intraperitoneal) in B6D2F1 (BDF1) mice
# Details: endpoint: mean survival time; dose: 32.0 mg/kg/injection; schedule: Q04DX003 (ip); vehicle: saline; higher = longer survival
smiles,measurement,value
O=C(NP(=O)(N1CC1)N1CC1)c1cc(I)ccc1I,T/C,104 % of control and 177 % of control
